Laboratory results as given in PubChem BioAssay AID504374 (National Center for Advancing Translational Sciences (NCATS), 2011).
Among all 1,500 compounds or so, about 100 (6.7%) were called active. Roughly 7% stayed inconclusive and do not appear here. The call rests on the fitted dose curve; in most records, active means well fitted inhibition curve with a large enough effect; inconclusive means small, poorly fitted or top-dose-only effect, or effect the other way; inactive means flat fitted curve, though single readings scatter. The list shows a part of the results.

molecular target: Runt-related transcription factor 1 (Homo sapiens) + Core-binding factor subunit beta (Homo sapiens) (UniProt Q01196+Q13951); assay: qHTS Assay for Compounds Blocking the Interaction Between CBF-beta and RUNX1 for the Treatment of Acute Myeloid Leukemia: Hit Validation; conditions: AlphaScreen CBFb-His/RUNX1-biotin binding; series mostly up to 59.8 µM; activity, negative = inhibition: at the top concentration; further: nearly all actives have a fitted effect of over 60% in size
Sequence of UniProt Q01196 (Q01196 whole entry, looked up): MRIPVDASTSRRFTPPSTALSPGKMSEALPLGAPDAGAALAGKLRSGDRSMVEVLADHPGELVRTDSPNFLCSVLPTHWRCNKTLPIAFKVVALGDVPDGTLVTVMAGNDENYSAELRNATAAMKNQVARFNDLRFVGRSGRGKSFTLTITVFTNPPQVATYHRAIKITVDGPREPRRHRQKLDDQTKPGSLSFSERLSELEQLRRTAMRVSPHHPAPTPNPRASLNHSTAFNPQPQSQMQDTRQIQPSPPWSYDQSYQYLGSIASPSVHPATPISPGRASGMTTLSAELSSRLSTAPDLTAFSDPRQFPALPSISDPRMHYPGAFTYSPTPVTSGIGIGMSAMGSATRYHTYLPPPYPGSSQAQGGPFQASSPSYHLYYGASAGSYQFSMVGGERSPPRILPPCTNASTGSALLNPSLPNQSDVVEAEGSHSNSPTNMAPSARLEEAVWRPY
Sequence of UniProt Q01196 (Q13951 whole entry, looked up): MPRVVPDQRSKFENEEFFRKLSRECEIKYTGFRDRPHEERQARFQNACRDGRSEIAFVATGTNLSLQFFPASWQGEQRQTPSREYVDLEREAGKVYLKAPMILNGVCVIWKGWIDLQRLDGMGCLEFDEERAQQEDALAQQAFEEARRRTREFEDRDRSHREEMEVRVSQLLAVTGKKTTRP
In short: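 Compounds were added to a premixed CBF-beta-His/RUNX1-biotin complex (30 nM each, 20 min) for 15 min. Nickel and streptavidin AlphaScreen beads followed for 90 min at room temperature, with emission at 440 nm […].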
On the % scale 0 is the no-effect control and ±100 the full control effect; potency means the concentration at half of the fitted maximal effect.

**Q.** Which “activity, negative = inhibition” value does the source give for `COc1ccccc1NC(=S)NC1CCCCCCCCCCC1` here?
**A.** Its value is inactive: -2.75%.

**Q.** `Cn1cccc1/C=C1\SC(=S)N(NC(=O)c2ccc(F)cc2)C1=O` was tested. Which “activity, negative = inhibition” value did it give?
**A.** Its value is inactive: -14.4%.

**Q.** Which “activity, negative = inhibition” value does the source give for `O=C(O)COc1ccccc1/C=N/NC(=O)CSc1nnc(-c2ccc(Cl)cc2)n1C1CCCCC1` here?
**A.** The value was inactive: -7.97%.

**Q.** Which “activity, negative = inhibition” value does the source give for `CC1(C)N=C(N)N=C(N)N1c1ccc(OCCCOc2ccccc2)c(Cl)c1` here?
**A.** The value was inactive: -10.6%.

**Q.** `COc1ccc(C(=O)/C=C/Sc2nc3ccccc3o2)cc1` was tested. Which “activity, negative = inhibition” value did it give?
**A.** The value was inactive: -2.46%.

**Q.** `Cc1cc(=O)n2[nH]c(CCC(=O)O)nc2n1` was tested. Which “activity, negative = inhibition” value did it give?
**A.** The value was inactive: 1.21%.

**Q.** `COc1cc([N+](=O)[O-])ccc1NC(=O)Oc1ccc(NC(C)=O)cc1` was tested. Which “activity, negative = inhibition” value did it give?
**A.** Its value is inactive: -5.38%.

**Q.** `COc1ccc(/C=N/NC(=O)c2cc(C3CC3)[nH]n2)cc1OC` was tested. Which “activity, negative = inhibition” value did it give?
**A.** Its value is inactive: -0.324%.

**Q.** With `Nc1nc(CCl)nc(N(c2ccccc2)c2ccccc2)n1` as the molecule, how does the “activity, negative = inhibition” value read?
**A.** Its value is inactive: -8.08%.

**Q.** With `Cc1cc(NC(=O)CN2CCCCC2)n(-c2ccccc2)n1` as the molecule, how does the “activity, negative = inhibition” value read?
**A.** The value was inactive: 2.06%.

**Q.** With `Cc1cccc(C)c1OCC(=O)N(Cc1ccc(N(C)C)cc1)C1CCS(=O)(=O)C1` (stereo not given) as the molecule, how does the “activity, negative = inhibition” value read?
**A.** Its value is inactive: -11.9%.

**Q.** `O=S(=O)(NCc1c(Cl)cccc1Oc1ccccc1)c1ccc(F)cc1` was tested. Which “activity, negative = inhibition” value did it give?
**A.** Its value is inactive: 21.9%.

**Q.** Which Potency does the source give for `CC(c1ccccn1)N(CCN(C)C)C(=S)Nc1cccc(F)c1` (stereo not given) here?
**A.** Its Potency is active: 3.44 µM.

**Q.** For `CCOC(=O)COc1nc(C)cc(C(F)(F)F)c1C#N`, which “activity, negative = inhibition” value is on record?
**A.** The value was inactive: -6.4%.

**Q.** `CC(=O)c1cc(C#N)c(SCc2ccccn2)nc1C` was tested. Which “activity, negative = inhibition” value did it give?
**A.** Its value is inactive: -7.25%.

**Q.** Which “activity, negative = inhibition” value does the source give for `Nc1c2ccccc2nc2ccccc12` here?
**A.** The value was inactive: 1.31%.

**Q.** Which “activity, negative = inhibition” value does the source give for `O=C(O)/C=C/c1cn(-c2ccccc2)nc1-c1ccc(-c2ccc([N+](=O)[O-])cc2)o1` here?
**A.** Its value is inactive: -3.9%.

**Q.** With `N/C(CSc1ccccn1)=N\OCc1c(Cl)cccc1Cl` as the molecule, how does the “activity, negative = inhibition” value read?
**A.** Its value is inactive: -2.05%.

**Q.** `CC(=O)N1CCCC1(C(=O)O)c1ccccc1` (stereo not given) was tested. Which “activity, negative = inhibition” value did it give?
**A.** Its value is inactive: 0.0405%.

**Q.** How did the “activity, negative = inhibition” value turn out when `C=C(C)C(=O)Nc1cccnc1Oc1ccc(F)cc1` was run?
**A.** The value was inactive: -1.27%.

**Q.** With `CC(C)COP(=O)(c1ccc(N(C)C)cc1)C(O)c1cccnc1` (stereo not given) as the molecule, how does the “activity, negative = inhibition” value read?
**A.** The value was inactive: 7.21%.

**Q.** How did the “activity, negative = inhibition” value turn out when `COc1ccc(C(=O)/C=C/c2cn(CC(O)CN3CCN(C)CC3)c3ccccc23)cc1OC` (stereo not given) was run?
**A.** Its value is inactive: -0.997%.

**Q.** With `COc1ccc(/C=N/n2nnnc2N)cc1OC` as the molecule, how does the “activity, negative = inhibition” value read?
**A.** Its value is inactive: -2.88%.

**Q.** How did the “activity, negative = inhibition” value turn out when `COC(=O)c1ccc(COc2ccc3c(c2)CCC3)o1` was run?
**A.** The value was inactive: 6.73%.

**Q.** Which “activity, negative = inhibition” value does the source give for `CN1C2CCC1CC(NC(=O)c1ccc(Cl)cc1)C2` (stereo not given) here?
**A.** The value was inactive: -3.07%.

**Q.** For `CC(=O)C1C(=O)CC(c2ccc(Cl)cc2)CC1=O` (stereo not given), which “activity, negative = inhibition” value is on record?
**A.** The value was inactive: -0.716%.

**Q.** For `CCN(CC)C(=S)SSC(=S)N(CC)CC`, which Potency is on record?
**A.** The Potency was active: 0.794 µM.

**Q.** `Cc1cc2nc3ccc(=[N+](C)C)cc-3sc2cc1N` was tested. Which Potency did it give?
**A.** Its Potency is active: 6.31 µM.

**Q.** With `CNC(=S)N1N=C2c3ccccc3CCC2C1c1ccccc1Cl` (stereo not given) as the molecule, how does the “activity, negative = inhibition” value read?
**A.** Its value is inactive: 12.3%.

**Q.** For `Cc1cc(Cl)c2cc3ccccc3cc2n1`, which “activity, negative = inhibition” value is on record?
**A.** Its value is inactive: -0.977%.

**Q.** How did the “activity, negative = inhibition” value turn out when `COc1ccc(OC)c(/C=N/NC(=O)CCc2c(C)n[nH]c2C)c1` was run?
**A.** The value was inactive: -9.64%.

**Q.** How did the “activity, negative = inhibition” value turn out when `CC(C)CC1C2C(=O)N(c3ccccc3)C(=O)C2ON1c1ccccc1` (stereo not given) was run?
**A.** The value was inactive: 0.251%.

**Q.** With `O=c1cc2c(=O)oc3cc(O)c(O)oc3c2c(O)c1O` as the molecule, how does the Potency read?
**A.** Its Potency is active: 0.447 µM.

**Q.** Which “activity, negative = inhibition” value does the source give for `NC(=S)Nc1cccc(Cl)c1` here?
**A.** Its value is inactive: 0.17%.

**Q.** How did the “activity, negative = inhibition” value turn out when `COc1ccc(OC)c(/C=N/NC(=O)c2cnccn2)c1` was run?
**A.** The value was inactive: -4.1%.

**Q.** With `Cc1ccc(/C=N/n2c(-c3cccc(Cl)c3)n[nH]c2=S)o1` as the molecule, how does the “activity, negative = inhibition” value read?
**A.** The value was inactive: -12.9%.

**Q.** `COc1cc(C(=O)NCC2(N3CCCCC3)CCCCC2)ccc1OCC(=O)N1CCOCC1` was tested. Which “activity, negative = inhibition” value did it give?
**A.** Its value is inactive: 5.53%.

**Q.** For `CNC(=O)/C(C#N)=C1\SC(Cc2ccc(F)cc2)C(=O)N1c1ccccc1C` (stereo not given), which “activity, negative = inhibition” value is on record?
**A.** The value was inactive: -0.028%.

**Q.** How did the “activity, negative = inhibition” value turn out when `O=[N+]([O-])/C=C/c1cc2ccccc2[nH]1` was run?
**A.** The value was inactive: -8.19%.

**Q.** `Cc1ccc(C2=NN(C(=O)CCC(=O)O)C(c3cccs3)C2)cc1` (stereo not given) was tested. Which “activity, negative = inhibition” value did it give?
**A.** The value was inactive: 0.0494%.

**Q.** For `O=C1Nc2c(ccc(Cl)c2Cl)C(=O)C1(F)c1ccccc1` (stereo not given), which “activity, negative = inhibition” value is on record?
**A.** Its value is inactive: -21.6%.

**Q.** For `Cc1ccccc1NC(=S)N(CCN(C)C)C(C)c1ccccn1` (stereo not given), which Potency is on record?
**A.** Its Potency is active: 4.86 µM.

**Q.** Which “activity, negative = inhibition” value does the source give for `Nc1nc(CCl)nc(Nc2ccc3ccccc3c2)n1` here?
**A.** The value was inactive: 3.21%.

**Q.** With `CC(C)(C)NC(=O)c1ccc(C(=O)NC(C)(C)C)cc1` as the molecule, how does the “activity, negative = inhibition” value read?
**A.** Its value is inactive: 6.07%.

**Q.** With `COc1ccc(NS(=O)(=O)c2ccc(Oc3c(C#N)cccc3C#N)cc2)cc1` as the molecule, how does the “activity, negative = inhibition” value read?
**A.** Its value is inactive: 1.71%.

**Q.** `CCOC(=O)c1nnsc1N` was tested. Which “activity, negative = inhibition” value did it give?
**A.** Its value is inactive: -0.536%.

**Q.** How did the “activity, negative = inhibition” value turn out when `CC(C)CCN1NC2(CCC(C)CC2)NC1=S` (stereo not given) was run?
**A.** Its value is inactive: -9.63%.

**Q.** For `COC(=O)c1scc(C)c1NC(=O)CSc1ccc(Cl)cc1`, which “activity, negative = inhibition” value is on record?
**A.** The value was inactive: -3.5%.

**Q.** `CCCc1cc(=O)oc2c(CN(CC)CC)c(O)c(Cl)cc12` was tested. Which “activity, negative = inhibition” value did it give?
**A.** Its value is inactive: -8.38%.

**Q.** With `O=C(Nc1ccc(F)cc1)N1CCCN(c2ccc(C(F)(F)F)cn2)CC1` as the molecule, how does the “activity, negative = inhibition” value read?
**A.** The value was inactive: -12.4%.

**Q.** `Cc1nn2c(NCc3cccnc3)c3c(nc2c1-c1ccccc1)CCC3` was tested. Which “activity, negative = inhibition” value did it give?
**A.** The value was inactive: 2.01%.

**Q.** `Nc1c(Cl)ncnc1NCC(O)CO` (stereo not given) was tested. Which “activity, negative = inhibition” value did it give?
**A.** Its value is inactive: -6.28%.

**Q.** Which “activity, negative = inhibition” value does the source give for `CC(C)c1nc(C#N)c(NN)o1` here?
**A.** Its value is inactive: -5.01%.

**Q.** How did the “activity, negative = inhibition” value turn out when `N=c1c2c(ncn1CCCO)Oc1cc(O)ccc1C2c1ccccc1` (stereo not given) was run?
**A.** Its value is inactive: 7.45%.

**Q.** With `CCCCCNc1nc2sc3c(c2c(=O)n1-c1cccc(Cl)c1)CCN(C)C3` as the molecule, how does the “activity, negative = inhibition” value read?
**A.** The value was inactive: 8.25%.

**Q.** How did the “activity, negative = inhibition” value turn out when `CC1CC(C)(C)NC(=S)O1` (stereo not given) was run?
**A.** The value was inactive: -3.02%.

**Q.** How did the “activity, negative = inhibition” value turn out when `COc1cscc1C(=O)O` was run?
**A.** The value was inactive: 1.2%.

**Q.** How did the “activity, negative = inhibition” value turn out when `Cc1c(-c2ccccc2)[n+](=O)c2c(n1[O-])CCCC2` was run?
**A.** Its value is inactive: 5.18%.

**Q.** How did the Potency turn out when `NC[C@@H](O)c1ccc(O)c(O)c1` was run?
**A.** Its Potency is active: 2.82 µM.

**Q.** With `Cc1cccc(C)c1NC(=S)N1CC(C)OC(C)C1` (stereo not given) as the molecule, how does the “activity, negative = inhibition” value read?
**A.** Its value is inactive: -4.3%.
